Drawing on a collection of fitness landscapes (doi:10.1126/science.1257360), this text covers enrichment ratio for 306 variants.

The chains are these.
B1: PhoQ; a variant is named by its letters at X, in order, P23837 (parent)
chain: MKKLLRLFFPLSLRVRFLLATAAVVLVLSLAYGMVALIGYSVSFDKTTFRLLRGESNLFYTLAKWENNKLHVELPENIDKQSPTMTLIYDENGQLLWAQRDVPWLMKMIQPDWLKSNGFHEIEADVNDTSLLLSGDHSIQQQLQEVREDDDDAEMTHSVAVNVYPATSRMPKLTIVVVDTIPVELKSSYMVWSWFIYVLSANLLLVIPLLWVAAWWSLRPIEALAKEVRELEEHNRELLNPATTRELTSLVRNLNRLLKSERERYDKYRTTLTDLTHSLKTPLXXLQXXLRSLRSEKMSVSDAEPVMLEQISRISQQIGYYLHRASMRGGTLLSRELHPVAPLLDNLTSALNKVYQRKGVNISLDISPEISFVGEQNDFVEVMGNVLDNACKYCLEFVEISARQTDEHLYIVVEDDGPGIPLSKREVIFDRGQRVDTLRPGQGVGLAVAREITEQYEGKIVAGESMLGGARMEVIFGRQHSAPKDE

The other results are listed elsewhere or left out.

Variants of B1 are the subject of this test. The test can be described thus: enrichment ratio after two sorts for PhoP signalling (ratio (wild type AVST 3.29)); higher = more functional. The settings on record: with PhoP (E. coli).
Turning to TMCI, the enrichment ratio was 12.4.
Under MFVY stands not above 0.25; under IDRA, not above 0.25; under FRTF, not above 0.25.
Then EDIS, with not above 0.25.
Under LLST stands not above 0.25; under IQMW, not above 0.25.
Consider QPTN, for which the enrichment ratio is not above 0.25.
Then GIQK, with not above 0.25; and NRKI, with not above 0.25; and GWLG, with not above 0.25.
Under MNMK stands not above 0.25; under DQPI, not above 0.25; under ICSA, not above 0.25.
Then YHMF, with not above 0.25.
Regarding WRHH, the enrichment ratio is not above 0.25.
Under SLVY stands not above 0.25; under YDIE, 3.39.
With IETV, the enrichment ratio is not above 0.25.
Under SKEP stands not above 0.25; under NSFT, not above 0.25.
Under VWKR stands not above 0.25; under PVQD, not above 0.25; under NLNR, not above 0.25.
Under MTTT stands not above 0.25.
Regarding NFYA, the enrichment ratio is not above 0.25.
Then LWKI, with not above 0.25; and FHAV, with not above 0.25.
Under HTFH stands not above 0.25; under FDGH, not above 0.25.
Under DEGW stands not above 0.25.
Take HKKD: the enrichment ratio is not above 0.25.
Then GGWH, with not above 0.25; and YQQC, with not above 0.25.
Then KHRF, with not above 0.25; and TTHR, with not above 0.25; and GIDS, with not above 0.25.
Under NLDD stands not above 0.25.
On to RNIH, for which the enrichment ratio is not above 0.25.
Under ENDD stands not above 0.25; under HGLF, 9.46; under DRMN, not above 0.25.
Then CVHP, with not above 0.25.
Then LHTQ, with not above 0.25.
FFSP: the enrichment ratio is not above 0.25.
Under YRKN stands not above 0.25.
Take SDKQ: the enrichment ratio was not above 0.25.
Then SSSM, with 14.8; and ECRC, with not above 0.25; and GIPQ, with not above 0.25.
Then VCDF, with not above 0.25.
Then NFLN, with 0.688; and CFFM, with not above 0.25.
As to VAFG, the enrichment ratio is not above 0.25.
Under GLIR stands not above 0.25; under WHTY, not above 0.25; under KAYQ, not above 0.25.
Then SSMM, with 19.1; and HPYT, with not above 0.25; and LHPQ, with not above 0.25.
Under HFGF stands not above 0.25; under DILE, not above 0.25.
Consider FRRV, for which the enrichment ratio is not above 0.25.
Then SNWV, with not above 0.25; and NSDS, with not above 0.25.
As to AKSN, the enrichment ratio was not above 0.25.
As for RHKC, the enrichment ratio was not above 0.25.
Then QIYA, with not above 0.25; and RTCP, with not above 0.25; and LFWN, with not above 0.25.
Under RCHM stands not above 0.25.
Under YDRL stands not above 0.25; under DSQY, not above 0.25.
Turning to KIKA, the enrichment ratio is not above 0.25.
Under GSAQ stands not above 0.25; under LFEL, not above 0.25; under VQIL, not above 0.25.
Under DKRN stands not above 0.25.
Under TIAW stands not above 0.25; under DWRI, not above 0.25.
For the variant DGIQ, the enrichment ratio is not above 0.25.
Then KCQR, with not above 0.25.
Then KKTL, with not above 0.25; and LRYW, with not above 0.25; and QVHP, with not above 0.25.
Turning to DMSP, the enrichment ratio is not above 0.25.
GTWK: the enrichment ratio is not above 0.25.
For RDTR, the enrichment ratio was not above 0.25.
Under EPPK stands not above 0.25.
Under RIQC stands not above 0.25; under YQIM, not above 0.25; under RWNK, not above 0.25.
As to AINP, the enrichment ratio was not above 0.25.
Under FKAC stands not above 0.25; under HQDT, not above 0.25; under DWMS, not above 0.25.
Then VLVE, with not above 0.25; and DKHR, with not above 0.25.
Under NERH stands not above 0.25.
With FSPS, the enrichment ratio was not above 0.25.
For EAMH, the enrichment ratio was not above 0.25.
Then PTKC, with not above 0.25.
Under SDHT stands not above 0.25.
For the variant PDYV, the enrichment ratio was not above 0.25.
Regarding HNGV, the enrichment ratio was not above 0.25.
Then VASW, with not above 0.25; and TTVW, with not above 0.25; and LGAF, with not above 0.25.
Then YMYF, with not above 0.25; and HWPW, with not above 0.25; and SLLE, with 2.52.
Then DPDC, with not above 0.25.
For the variant DKVD, the enrichment ratio was not above 0.25.
For PKDV, the enrichment ratio is not above 0.25.
Take YQWV: the enrichment ratio was not above 0.25.
Under KFYS stands not above 0.25; under ASEQ, not above 0.25.
Under SCFF stands not above 0.25; under RTRP, not above 0.25; under VKVL, not above 0.25.
Then IMCS, with not above 0.25; and IQAV, with not above 0.25.
VFAS: the enrichment ratio was not above 0.25.
As to EVVP, the enrichment ratio is not above 0.25.
Then IYEI, with not above 0.25.
Then FIHL, with not above 0.25.
As to NQDH, the enrichment ratio is not above 0.25.
Then EFHH, with not above 0.25.
Under TSME stands 7.32.
Then HAMY, with not above 0.25; and DMAA, with not above 0.25; and IRYM, with not above 0.25.
Take SCKK: the enrichment ratio was not above 0.25.
For TNRK, the enrichment ratio was not above 0.25.
QMSK: the enrichment ratio was not above 0.25.
Then MDDT, with not above 0.25; and TWIL, with not above 0.25.
RAEG: the enrichment ratio is not above 0.25.
Consider TLIE, for which the enrichment ratio is not above 0.25.
For the variant DHDF, the enrichment ratio is not above 0.25.
VDQN: the enrichment ratio is not above 0.25.
Then WKGL, with not above 0.25.
Then QSVR, with not above 0.25; and FDPR, with not above 0.25.
For QDAP, the enrichment ratio is not above 0.25.
Then WYPW, with not above 0.25; and HNWG, with not above 0.25; and DETY, with not above 0.25.
Turning to GNPN, the enrichment ratio was not above 0.25.
With PLYH, the enrichment ratio was not above 0.25.
Then IHYF, with not above 0.25.
Under HMNK stands not above 0.25; under MSRF, not above 0.25; under NNWF, not above 0.25.
Under ADYH stands not above 0.25.
Take TKHC: the enrichment ratio was not above 0.25.
Under MRKY stands not above 0.25; under EMTW, not above 0.25.
Then VYGH, with not above 0.25.
Under DGAG stands not above 0.25; under MGNV, not above 0.25.
For the variant THNV, the enrichment ratio is not above 0.25.
Take YGIM: the enrichment ratio turned out to be 0.277.
Under FYPR stands not above 0.25; under RRAT, not above 0.25; under VYMF, not above 0.25.
Then RTTA, with not above 0.25; and FRKN, with not above 0.25.
As for AWDG, the enrichment ratio was not above 0.25.
Then RSIC, with not above 0.25; and RRQH, with not above 0.25.
Then GNIH, with not above 0.25; and ILFS, with not above 0.25.
Under VLGL stands not above 0.25; under PHID, not above 0.25; under LPML, not above 0.25.
As for DHIP, the enrichment ratio was not above 0.25.
Then PEAG, with not above 0.25; and WMRH, with not above 0.25.
Then TKVL, with 8.9.
Then FYSY, with not above 0.25; and KLCN, with not above 0.25; and ANPD, with not above 0.25.
For PHWS, the enrichment ratio is not above 0.25.
Under PVRK stands not above 0.25; under QLRC, not above 0.25; under WLRW, not above 0.25.
Under QAND stands not above 0.25; under SWAY, not above 0.25; under TGWV, 4.33.
Consider NHCR, for which the enrichment ratio was not above 0.25.
Then VETD, with not above 0.25; and HCHR, with not above 0.25; and VGVN, with not above 0.25.
Then DSEM, with not above 0.25; and ESLF, with not above 0.25.
Under MHRV stands not above 0.25.
For the variant DENP, the enrichment ratio is not above 0.25.
Then KATN, with not above 0.25.
Then LFET, with not above 0.25; and VFIH, with not above 0.25; and DRDT, with not above 0.25.
Under YYAD stands not above 0.25; under GGSV, 23.9.
For VKQI, the enrichment ratio was not above 0.25.
In the case of DNFR, the enrichment ratio was not above 0.25.
Under LKDM stands not above 0.25; under GSVL, 7.99.
Then PCAM, with not above 0.25; and ITQQ, with not above 0.25.
Under WSTN stands not above 0.25; under EQFG, not above 0.25.
VWGN: the enrichment ratio was not above 0.25.
Under LMVK stands not above 0.25.
Under GGKF stands not above 0.25; under DVAD, not above 0.25; under VTKC, not above 0.25.
Under QRHR stands not above 0.25.
Take QFYR: the enrichment ratio was not above 0.25.
Then ELNS, with not above 0.25.
Under RTES stands not above 0.25.
Under LFMI stands not above 0.25.
In the case of REDM, the enrichment ratio was not above 0.25.
In the case of DNCS, the enrichment ratio is not above 0.25.
Then PNDN, with not above 0.25; and QSWL, with 11.6; and ASRG, with not above 0.25.
Then EITQ, with not above 0.25; and YIVC, with not above 0.25; and WDDF, with not above 0.25.
Under TFPT stands not above 0.25; under WRRK, not above 0.25; under GDNM, not above 0.25.
With WFVA, the enrichment ratio was not above 0.25.
Turning to LKTP, the enrichment ratio is not above 0.25.
Under VFAY stands not above 0.25.
Then SNYF, with not above 0.25.
Then VHEP, with 2.38.
Consider PQWW, for which the enrichment ratio is not above 0.25.
Then NVKI, with not above 0.25; and EKYP, with not above 0.25; and RWTE, with not above 0.25.
Then IPCV, with not above 0.25.
Under RRGG stands not above 0.25.
Consider VQNY, for which the enrichment ratio is not above 0.25.
Take NHQS: the enrichment ratio is not above 0.25.
Under DNAR stands not above 0.25; under TRNQ, not above 0.25; under FAFT, not above 0.25.
Under TYWP stands not above 0.25.
Regarding THFN, the enrichment ratio worked out at 1.03.
Under QRVQ stands not above 0.25; under KIVN, not above 0.25.
Under DCWG stands not above 0.25.
Then HMSQ, with not above 0.25.
Turning to DEAC, the enrichment ratio is not above 0.25.
As to FCGI, the enrichment ratio is not above 0.25.
Under WRGG stands not above 0.25.
Under KPQR stands not above 0.25; under ARHT, not above 0.25; under MQKF, not above 0.25.
For GPFF, the enrichment ratio was not above 0.25.
Then PIVV, with not above 0.25; and YFGV, with not above 0.25.
Under VCAG stands not above 0.25.
Under HPKQ stands not above 0.25; under KTPF, not above 0.25.
With FYQQ, the enrichment ratio was not above 0.25.
Then QCIR, with not above 0.25; and PVVC, with not above 0.25.
Then PEAM, with not above 0.25.
Regarding NLPS, the enrichment ratio was not above 0.25.
Under MMAI stands 8.34; under VFLA, not above 0.25; under LPLG, not above 0.25.
Under KTLI stands not above 0.25.
Under RIHI stands not above 0.25; under NQVG, not above 0.25; under MFVF, not above 0.25.
For MTKQ, the enrichment ratio is not above 0.25.
Then LISW, with not above 0.25.
Under DKND stands not above 0.25.
Then LTKD, with not above 0.25; and RSHG, with not above 0.25.
As for RVQE, the enrichment ratio was not above 0.25.
Take QPMV: the enrichment ratio was not above 0.25.
Then PVIS, with not above 0.25; and EKSC, with not above 0.25.
Under VYLH stands not above 0.25; under TVTC, 14.5.
Then VIRF, with not above 0.25.
Regarding SLMF, the enrichment ratio stood at 2.69.
Under SFGQ stands not above 0.25; under DVWC, not above 0.25.
Then SVSR, with 6.38; and PWKF, with not above 0.25; and MDFF, with not above 0.25.
Under VRHA stands not above 0.25.
Consider CTLH, for which the enrichment ratio was not above 0.25.
In the case of HMNR, the enrichment ratio is not above 0.25.
Under RLKE stands not above 0.25; under EIYL, not above 0.25; under GIGH, not above 0.25.
Then HFMD, with not above 0.25; and PRRD, with not above 0.25; and NREQ, with not above 0.25.
